The source of these data is PubChem BioAssay AID360 (National Center for Advancing Translational Sciences (NCATS), 2006).

The whole screen tested about 48,000 compounds, of which about 550 (1.1%) were called active. Roughly 4% stayed inconclusive and do not appear here. Cut-off read from the data, not from the text of the source: active = potency below about 15 µM; inconclusive = mostly about 16 µM to 33 µM; inactive = weaker than that. Some of the results follow.
Potency is the fitted concentration of half-maximal effect.

UniProt P04062, sequence (P04062 whole entry, looked up): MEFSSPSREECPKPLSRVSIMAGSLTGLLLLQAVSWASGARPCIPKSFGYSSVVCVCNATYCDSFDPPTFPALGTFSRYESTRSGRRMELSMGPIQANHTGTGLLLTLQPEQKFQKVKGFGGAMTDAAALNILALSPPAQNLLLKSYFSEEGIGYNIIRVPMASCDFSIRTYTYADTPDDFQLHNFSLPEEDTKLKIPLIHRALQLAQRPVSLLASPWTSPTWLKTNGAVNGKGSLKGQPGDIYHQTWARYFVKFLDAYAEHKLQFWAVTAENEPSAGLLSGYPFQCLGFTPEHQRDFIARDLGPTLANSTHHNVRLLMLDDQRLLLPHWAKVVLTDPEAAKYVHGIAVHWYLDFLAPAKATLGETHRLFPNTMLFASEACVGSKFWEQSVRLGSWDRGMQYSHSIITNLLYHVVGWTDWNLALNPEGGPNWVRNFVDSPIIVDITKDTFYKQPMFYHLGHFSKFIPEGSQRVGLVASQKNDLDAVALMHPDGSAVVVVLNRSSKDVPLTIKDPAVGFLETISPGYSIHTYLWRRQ

This assay concerns the target Lysosomal acid glucosylceramidase (Homo sapiens) (UniProt P04062). In words: Glucocerebrosidase.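 Note: the screen sought inhibitors.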 The conditions noted are these: purified enzyme, resorufin glucoside fluorescence (screen aimed at inhibitors), 20 min. An outline of the steps:
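Normal human glucocerebrosidase (0.2 nM final) was assayed with resorufin β-D-glucopyranoside (30 uM final) in 50mM citric acid/KH2PO4, 10mM sodium taurocholate, 0.01% tween-20, pH 5.9. Compounds were titrated; fluorescence (Ex 548, Em 600) read after 20 min at RT.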
For `Cc1nc2nc(C)c(CCC(=O)N3CCC4(CC3)OCCO4)c(C)n2n1`, the Potency was inactive: > 76.9 µM.

On to `CCCCn1c(=O)c(C(=O)NCc2ccncc2)c(O)c2ccccc21`, for which the Potency is inactive: > 76.9 µM.

As for `Cc1cc(NC(=O)COC(=O)c2c(C)nn(Cc3ccccc3)c2Cl)no1`, the Potency was inactive: > 76.9 µM.

Regarding `CCC(=O)c1cn(Cc2ccccc2C#N)c2ccccc12`, the Potency is inactive: > 76.9 µM.

As for `O=C(NCc1ccc(C(=O)N2CCC3(CC2)OCCO3)cc1)c1ccc2c(c1)OCO2`, the Potency was inactive: > 76.9 µM.

Consider `CC(=NCc1cccnc1)c1c(O)n(C2CCCCC2)c(=O)[nH]c1=O`, for which the Potency was inactive: > 76.9 µM.

As for `O=C(CCS(=O)(=O)c1ccc(Br)cc1)N1CCC2(CC1)OCCO2`, the Potency was inactive: > 76.9 µM.

As for `C(#CCN1CCOCC1)COCC#Cc1ccccc1`, the Potency is inactive: > 76.9 µM.

For the molecule `COC(=O)c1cncn1C(C)c1ccccc1` (centres undefined), the Potency was inactive: > 76.9 µM.

As to `CN1C2CCC1CC(OC(=O)CCN1CCCC1)C2` (centres undefined), the Potency is inactive: > 76.9 µM.

In the case of `CCCC(=O)Nc1ccc(N2CCN(CC)CC2)c(Cl)c1`, the Potency is active: 1.68 µM.

As to `Cc1oc(-c2ccc(Cl)cc2)nc1CS(=O)CC(=O)N1CCC2(CC1)OCCO2` (centres undefined), the Potency was inactive: > 76.9 µM.

Consider `COc1ccc(S(=O)(=O)NC(CC(=O)N2CCC3(CC2)OCCO3)c2ccco2)cc1` (centres undefined), for which the Potency was inactive: > 76.9 µM.

For `COC(=O)C1C2c3ccccc3OC1(C)N=c1s/c(=C/c3cnn(C)c3)c(=O)n12` (centres undefined), the Potency is inactive: > 76.9 µM.

On to `O=C(NCC(c1cccnc1)N1CCOCC1)Oc1ccccc1` (centres undefined), for which the Potency was inactive: > 76.9 µM.

With `CCC(=Nc1ccc(OC)cc1OC)c1c(O)n(C)c(=O)n(C)c1=O`, the Potency is inactive: > 76.9 µM.

`Cc1ccc(OCC(=O)N2CCN(CC3CC4C=CC3C4)CC2)cc1` (centres undefined): the Potency was inactive: > 76.9 µM.

For the molecule `O=C(c1cc(-c2ccncc2)nc2ccccc12)N1CCC2(CC1)OCCO2`, the Potency is inactive: > 76.9 µM.

Consider `CCC(=NCCO)c1c(O)n(-c2ccc(Cl)cc2)c(=O)[nH]c1=O`, for which the Potency was inactive: > 76.9 µM.

As to `CCN1CCN(Cc2nnnn2C(C)(C)C)CC1`, the Potency is inactive: > 76.9 µM.

In the case of `Cc1cc(C)n2nc(SCC(=O)N3CCC4(CC3)OCCO4)nc2n1`, the Potency is inactive: > 76.9 µM.

With `CN(C)C1=C(C#N)C(c2ccccc2)=NP(N(C)C)(N(C)C)=N1`, the Potency was inactive: > 76.9 µM.

Take `CCCC(C)C1(CC)C(=O)NC(=Nc2ccc(F)cc2)NC1=O` (centres undefined): the Potency is inactive: > 76.9 µM.

`CN(C)c1cc(N)c2c(n1)CCC2` (tested in a mixture with another compound): the Potency is inactive: > 76.9 µM.

On to `CCOC(=O)C(C)Oc1cc(C)cc2oc(=O)c3c(c12)CCCC3` (centres undefined), for which the Potency was inactive: > 76.9 µM.

`CCC(=NCc1ccc2c(c1)OCO2)c1c(O)n(C)c(=O)n(C)c1=O`: the Potency is inactive: > 76.9 µM.

As for `CCCC(C)n1[nH]c(=O)c2c1NC(=O)CSC2c1ccc(OC)c(OC)c1` (centres undefined), the Potency was inactive: > 76.9 µM.

Take `O=C(C1CCC(=O)N1C1CCCCC1)N1CCC2(CC1)OCCO2` (centres undefined): the Potency is inactive: > 76.9 µM.

As to `N#Cc1ccccc1Cn1cc(C(=O)C2CC2)c2ccccc21`, the Potency was inactive: > 76.9 µM.

For `Cc1cc(OCC(=O)Nc2cc(C)nn2-c2ccccn2)c2c3c(c(=O)oc2c1)CCC3`, the Potency is inactive: > 76.9 µM.

For the molecule `O=c1c2ccccc2[nH]c(=S)n1-c1ccc2c(c1)OCO2`, the Potency was inactive: > 76.9 µM.

On to `Nc1cccc(N=Cc2c(O)n(Cc3ccc(F)cc3)c(=O)[nH]c2=O)c1`, for which the Potency was inactive: > 76.9 µM.

Turning to `CCOC(=O)C1CN(C)CCC1=O` (centres undefined), the Potency is inactive: > 76.9 µM.

Regarding `CN1CCC(N(C)c2nc(-c3ccccc3)nc3ccccc23)CC1`, the Potency entry is “inactive”.

On to `O=C1C2CCCN2C(c2ccc(Cl)cc2)N1c1ccccn1` (centres undefined), for which the Potency is inactive: > 76.9 µM.

For the molecule `COCCOC(=O)c1c(C)oc2ccc(OC(=O)N(C)C)cc12`, the Potency was inactive: > 76.9 µM.

With `CS(=O)(=O)N1CCCC(C(=O)N2CCC3(CC2)OCCO3)C1` (centres undefined), the Potency is inactive: > 76.9 µM.

As to `O=C(Cc1ccccc1)OCn1nnc2ccccc2c1=O`, the Potency is inactive: > 76.9 µM.

Consider `COc1ccc(CCn2c(O)c(C=NCCCN(C)C)c(=O)[nH]c2=O)cc1OC`, for which the Potency is inactive: > 76.9 µM.

Regarding `CCCNS(=O)(=O)c1ccc(OCC(=O)N2CCN(Cc3ccccc3)CC2)cc1`, the Potency is inactive: > 76.9 µM.

Take `O=C1NC(=O)N(Cc2ccccc2Cl)C(=O)/C1=C/N1CCOCC1`: the Potency was inactive: > 76.9 µM.

In the case of `O=C(CCC(=O)N1CCC2(CC1)OCCO2)Nc1nnc(C(F)(F)F)s1`, the Potency is inactive: > 76.9 µM.

As to `CCC(=NCCCO)c1c(O)n(-c2ccc(OC)cc2)c(=O)[nH]c1=O`, the Potency is inactive: > 76.9 µM.

With `COc1ccc(N2C(=O)CC(=O)NC2=O)cc1`, the Potency is inactive: > 76.9 µM.

Regarding `O=C(C1CC(=O)N(C2CCCCC2)C1)N1CCC2(CC1)OCCO2` (centres undefined), the Potency is inactive: > 76.9 µM.

On to `CCOP(=O)(C#CC(C)(C)C)C(C)(O)c1ccccc1` (centres undefined), for which the Potency was inactive: > 76.9 µM.

Turning to `C=CCn1c(O)c(C=Nc2ccc(OC)cc2C)c(=O)[nH]c1=O`, the Potency was inactive: > 76.9 µM.

Regarding `CN(C)C1=NP(N(C)C)(N(C)C)=NC(c2ccccc2)=N1`, the Potency was inactive: > 76.9 µM.

As to `NC(=O)OCCSc1nnc(-c2cccc(C(N)=S)c2)o1`, the Potency is inactive: > 76.9 µM.

In the case of `O=C(C1CC(c2ccc(Cl)c(Cl)c2)=NO1)N1CCC2(CC1)OCCO2` (centres undefined), the Potency is inactive: > 76.9 µM.

In the case of `O=C(c1csc2c1CCCCC2)N1CCC2(CC1)OCCO2`, the Potency was inactive: > 76.9 µM.

With `O=C(C1CCCN(c2nnc(-n3cccc3)s2)C1)N1CCC2(CC1)OCCO2` (centres undefined), the Potency is inactive: > 76.9 µM.

With `CN(C)CCN=Cc1c(O)n(-c2cccc3ccccc23)c(=O)[nH]c1=O`, the Potency is inactive: > 76.9 µM.

Consider `O=C(c1cc2nc(-c3ccccc3)cc(-c3ccccc3)n2n1)N1CCC2(CC1)OCCO2`, for which the Potency was inactive: > 76.9 µM.

With `CCn1c(O)c(C=NCCc2c[nH]c3ccccc23)c(=O)[nH]c1=O`, the Potency is inactive: > 76.9 µM.

For `CC(N)Cc1c[nH]c2cc3c(cc12)OCCO3` (centres undefined), the Potency is inactive: > 76.9 µM.

On to `COC(=O)c1cc2c(s1)=NC=NP=2(N1CCOCC1)N1CCOCC1`, for which the Potency was inactive: > 76.9 µM.

On to `CCC(=NCc1ccco1)c1c(O)n(-c2ccccc2)c(=O)[nH]c1=O`, for which the Potency is inactive: > 76.9 µM.

In the case of `CCN1c2nc3ccccn3c(=O)c2CC2(C(=O)N(C)C(=O)N(C)C2=O)C1C` (centres undefined), the Potency is inactive: > 76.9 µM.

With `O=C(C(Cc1ccccc1)NS(=O)(=O)c1ccc(F)cc1)N1CCC2(CC1)OCCO2` (centres undefined), the Potency was inactive: > 76.9 µM.

Take `O=C(C1CCN(S(=O)(=O)N2CCOCC2)CC1)N1CCC2(CC1)OCCO2`: the Potency was inactive: > 76.9 µM.

`CC(=NCCC1=CCCCC1)c1c(O)[nH]c(=O)[nH]c1=O`: the Potency was inactive: > 76.9 µM.

On to `COc1ccc(OC)c(-n2c(O)c(C=NCc3ccc4c(c3)OCO4)c(=O)[nH]c2=O)c1`, for which the Potency is inactive: > 76.9 µM.

For `CCCCn1c(O)c(C(C)=NCCCN(CC)CC)c(=O)[nH]c1=O`, the Potency was inactive: > 76.9 µM.

For the molecule `O=C1NC(=O)C2(Cc3ccccc3N3CCCC32)C(=O)N1c1cccc(Cl)c1` (centres undefined), the Potency is inactive: > 76.9 µM.

Take `O=c1[nH]c(=O)n(Cc2ccc(F)cc2)c(O)c1C=NCCCN1CCOCC1`: the Potency is inactive: > 76.9 µM.

For `O=c1[nH]c(=O)n(CCC2=CCCCC2)c(O)c1C=NCc1cccnc1`, the Potency is inactive: > 76.9 µM.

For `CCOc1cccc(N2C(=O)CC(=O)NC2=O)c1`, the Potency is inactive: > 76.9 µM.

As to `O=C1NC(=O)C(CCc2ccncc2)(c2ccccc2)C(=O)N1`, the Potency was inactive: > 76.9 µM.

In the case of `Cc1ccc(C2SCC(=O)Nc3c2c(=O)[nH]n3C2CCOC(C)(C)C2)cc1` (centres undefined), the Potency was inactive: > 76.9 µM.

As for `Cc1cc(N2CCOCC2)nc2ccc(NC(=O)CCC(=O)N3CCC4(CC3)OCCO4)cc12`, the Potency is active: 4.68 µM.

With `O=c1c2ccccc2nc(N2CCCC2)n1-c1ccc(Cl)cc1`, the Potency was inactive: > 76.9 µM.

Consider `CC(=NCCN1CCCCC1)c1c(O)n(Cc2ccccc2)c(=O)[nH]c1=O`, for which the Potency is inactive: > 76.9 µM.

`CCC(=O)N1CC(=O)Nc2ccc(Cl)cc2C1c1ccc(F)cc1` (centres undefined): the Potency is inactive: > 76.9 µM.

As to `O=S(=O)(c1ccc(Cl)cc1)N1CN2CCN(C2)C1`, the Potency is inactive: > 76.9 µM.

On to `C(#CCN1CCOCC1)COC/C=C/c1ccccc1`, for which the Potency is inactive: > 76.9 µM.

With `Cc1cccc(CN(C)C)c1OC(=O)N(C)C`, the Potency is inactive: > 76.9 µM.

Consider `Cc1cc(N2C(=O)C3CCCN3C2c2cccc(Cl)c2)no1` (centres undefined), for which the Potency is inactive: > 76.9 µM.

As for `CCOC(=O)C1(c2ccccc2)CCN(Cc2cccc(C(=O)O)c2)CC1`, the Potency is inactive: > 76.9 µM.

Turning to `CCNCC1(c2ccc(OC)c(OC)c2)CCCC1`, the Potency is inactive: > 76.9 µM.

As to `C=C1N2CCC(CC2)C1(O)c1ccccc1C` (centres undefined), the Potency is inactive: > 76.9 µM.

Regarding `O=C(c1ccc(CS(=O)(=O)c2ccc(Br)cc2)o1)N1CCC2(CC1)OCCO2`, the Potency was inactive: > 76.9 µM.

Turning to `COc1ccc(Cn2c(N)c(C(=O)NCc3ccco3)c3nc4ccccc4nc32)cc1OC`, the Potency is inactive: > 76.9 µM.

Regarding `O=C(COc1ccccc1)N1CCN(CC(O)COc2ccccc2)CC1` (centres undefined), the Potency was inactive: > 76.9 µM.

Take `CCOc1cc2[nH]c(=S)n(CCCC(=O)N3CCC4(CC3)OCCO4)c(=O)c2cc1OCC`: the Potency was inactive: > 76.9 µM.

Regarding `Cc1cc(OCC(=O)NC2CCS(=O)(=O)C2)c2c3c(c(=O)oc2c1)CCC3` (centres undefined), the Potency is inactive: > 76.9 µM.

For the molecule `CCC(=NCCO)c1c(O)n(-c2ccccc2)c(=O)[nH]c1=O`, the Potency is inactive: > 76.9 µM.

As to `CC(=O)c1ccccc1NC(=O)C1C2CCC(O2)C1C(=O)O` (centres undefined), the Potency was inactive: > 76.9 µM.

With `CCOC(=O)C1C(=O)NC23CCCC2C1c1ccccc1O3` (centres undefined), the Potency is inactive: > 76.9 µM.
